The other results are listed elsewhere or left out.

This test concerns the target T1, MBP-FoxP1dN (Mus musculus, UniProt P58462 326-579).
T1 sequence: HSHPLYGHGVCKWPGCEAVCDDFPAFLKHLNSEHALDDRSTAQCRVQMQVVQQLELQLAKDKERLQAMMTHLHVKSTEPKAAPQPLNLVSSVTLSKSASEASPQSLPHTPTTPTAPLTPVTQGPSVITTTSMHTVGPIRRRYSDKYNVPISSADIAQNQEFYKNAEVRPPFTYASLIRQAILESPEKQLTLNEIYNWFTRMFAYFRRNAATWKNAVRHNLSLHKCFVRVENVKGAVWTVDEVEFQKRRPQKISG
Description: PD-seq (MBP pull-down with sequencing); 20 mM Tris-HCl pH 7.5, 100 mM NaCl, 1.5 mM MgCl2, 0.4 uM protein, 0.1 uM dsDNA library, 30 min, room temperature, amylose pull-down; high values mean tight binding. Particulars: protein: recombinant; tags: His6-MBP; chain copies: 2; dsDNA, one strand shown. The procedure, abridged: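 E. coli-expressed mouse FoxP3 or FoxP1 fragment, N-terminus removed and tagged with His6-MBP, was used at 0.4 µM against 0.1 µM of a Klenow-filled degenerate double-stranded DNA library. After 30 min at room temperature in Tris pH 7.5 buffer with NaCl and MgCl2, complexes were pulled down on amylose resin and washed three times. Binding is pull-down over input reads-per-million enrichment from pooled replicates of the proteinase K-released, PCR-barcoded, Illumina-sequenced DNA.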
On to “GATGATTGTTCTCCCAGCTGATGAATTCCGGATCTCGAGTAAACAAATTTTCCTAATCTTTCTGTTCAAGCGCCATCTAC”, for which the binding signal is 0.742 RPM ratio (pull-down/input).
As to “GATGATTGTTCTCCCAGCTGATGAATTCCAGGACTCGAGTAAACAAATTTTCCTAATCTTTCTGTTCAAGCGCCATCTAC”, the binding signal was 0.746 RPM ratio (pull-down/input).
“GATGATTGTTCTCCCAGCTGATGAATTTAGAGTTTCGAGTAAACAAATTTTCCTAATCTTTCTGTTCAAGCGCCATCTAC”: the binding signal is 1.01 RPM ratio (pull-down/input).
The same measure for “GATGATTGTTCTCCCAGCTGATGAATTAATGGCATCGAGTAAACAAATTTTCCTAATCTTTCTGTTCAAGCGCCATCTAC”: 1.14 RPM ratio (pull-down/input).
Consider “GATGATTGTTCTCCCAGCTGATGAATTCTTCCAGTCGAGTAAACAAATTTTCCTAATCTTTCTGTTCAAGCGCCATCTAC”, for which the binding signal was 0.776 RPM ratio (pull-down/input).
For “GATGATTGTTCTCCCAGCTGATGAATTTTGATATTCGAGTAAACAAATTTTCCTAATCTTTCTGTTCAAGCGCCATCTAC” the value was 1.19 RPM ratio (pull-down/input); for “GATGATTGTTCTCCCAGCTGATGAATTCCTCAGATCGAGTAAACAAATTTTCCTAATCTTTCTGTTCAAGCGCCATCTAC”, 0.761 RPM ratio (pull-down/input).
Turning to “GATGATTGTTCTCCCAGCTGATGAATTAACACGATCGAGTAAACAAATTTTCCTAATCTTTCTGTTCAAGCGCCATCTAC”, the binding signal is 0.998 RPM ratio (pull-down/input).
As for “GATGATTGTTCTCCCAGCTGATGAATTATCAACCTCGAGTAAACAAATTTTCCTAATCTTTCTGTTCAAGCGCCATCTAC”, the binding signal was 0.959 RPM ratio (pull-down/input).
For “GATGATTGTTCTCCCAGCTGATGAATTGGAGCGCTCGAGTAAACAAATTTTCCTAATCTTTCTGTTCAAGCGCCATCTAC” the value was 0.802 RPM ratio (pull-down/input); for “GATGATTGTTCTCCCAGCTGATGAATTATCTGCGTCGAGTAAACAAATTTTCCTAATCTTTCTGTTCAAGCGCCATCTAC”, 1.08 RPM ratio (pull-down/input).
Regarding “GATGATTGTTCTCCCAGCTGATGAATTGGATAGATCGAGTAAACAAATTTTCCTAATCTTTCTGTTCAAGCGCCATCTAC”, the binding signal was 0.87 RPM ratio (pull-down/input).
Take “GATGATTGTTCTCCCAGCTGATGAATTGTACCAATCGAGTAAACAAATTTTCCTAATCTTTCTGTTCAAGCGCCATCTAC”: the binding signal is 1.07 RPM ratio (pull-down/input).
For “GATGATTGTTCTCCCAGCTGATGAATTAAGAAAGTCGAGTAAACAAATTTTCCTAATCTTTCTGTTCAAGCGCCATCTAC” the value was 0.842 RPM ratio (pull-down/input); for “GATGATTGTTCTCCCAGCTGATGAATTCAGACAATCGAGTAAACAAATTTTCCTAATCTTTCTGTTCAAGCGCCATCTAC”, 1.15 RPM ratio (pull-down/input).
For “GATGATTGTTCTCCCAGCTGATGAATTACTCTTTTCGAGTAAACAAATTTTCCTAATCTTTCTGTTCAAGCGCCATCTAC”, the binding signal is 1.08 RPM ratio (pull-down/input).
With “GATGATTGTTCTCCCAGCTGATGAATTGTGTAGTTCGAGTAAACAAATTTTCCTAATCTTTCTGTTCAAGCGCCATCTAC”, the binding signal was 1.38 RPM ratio (pull-down/input).
For “GATGATTGTTCTCCCAGCTGATGAATTCATTGATTCGAGTAAACAAATTTTCCTAATCTTTCTGTTCAAGCGCCATCTAC”, the binding signal was 1.03 RPM ratio (pull-down/input).

These data come from article PMC12820563, “FoxP3 forms a head-to-head dimer in vivo and stabilizes its multimerization on adjacent microsatellites”.
